# Assay results taken from PubChem BioAssay AID485281 (National Center for Advancing Translational Sciences (NCATS), 2010).
# Screen size: about 350,000 compounds; about 260 (0.074%) were called active. This list was built around the results that the source calls inconclusive (neither active nor inactive); the mix of calls is not that of the screen. Calls follow the shape of the dose curve; as a rule, active = well fitted inhibition curve with a large enough effect; inconclusive = small, poorly fitted or top-dose-only effect; inactive = no such curve, though single readings can be large or run the other way. Potencies of inconclusive entries are doubtful fits and often do not repeat.
# Molecular target: Ferritin light chain (Equus caballus) (UniProt P02791)
# Assay: qHTS Assay for Identification of Novel General Anesthetics; also: nearly all actives have a fitted effect of over 20% in size
# Conditions: apoferritin/1-aminoanthracene competitive binding, fluorescence; activity change, negative = displacement: at 77.5 µM (top of the series)
# Summary of the method: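 Read-out: endpoint 1-AMA fluorescence, excitation 380 nm and emission 535 nm, after compounds sit 10 min at room temperature with 10 uM horse-spleen apoferritin in 50% saturated 1-AMA/PBS. Values come from four-parameter Hill fits.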
# % is scaled to controls: 0 for no effect and ±100 for the full control effect; potency is read from the fitted curve at half-maximal effect; tags tell the direction and shape of the fitted curve.
# UniProt P02791, sequence (P02791 whole entry, looked up): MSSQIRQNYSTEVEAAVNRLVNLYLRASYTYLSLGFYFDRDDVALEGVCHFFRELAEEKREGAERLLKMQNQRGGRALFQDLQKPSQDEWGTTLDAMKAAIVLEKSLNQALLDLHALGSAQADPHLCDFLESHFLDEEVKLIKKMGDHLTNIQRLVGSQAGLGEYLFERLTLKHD
Structure (SMILES),Potency,"activity change, negative = displacement"
COc1ccc(N(C(=O)Cn2nnc3ccccc32)C(C(=O)NCc2ccco2)c2ccc(C)o2)cc1 (configuration not stated),"inconclusive: 10 µM [inhibitor, full curve, poor fit]",–
CCOC(=O)c1c(N2C(=O)Nc3cc(Cl)c(Cl)cc3N2O)sc2c1CCCCC2,"inconclusive: 35.5 µM [inhibitor, partial curve]",–
OCC1(Cc2ccccc2)CCN(C2CCN(c3ccc(F)c(F)c3)CC2)CC1,"inconclusive: 35.5 µM [inhibitor, partial curve]",–
O=C(NCc1ccccc1Cl)c1cnc2ccccc2n1,–,inactive: 1.72%
CC(C)(C)c1ccc(OCC(=O)N/N=C/c2ccsc2)cc1,"inconclusive: 50.1 µM [inhibitor, single point]",–
Cc1ccc(Cn2cnc3ccccc32)cc1,"inconclusive: 28.2 µM [inhibitor, partial curve]",–
Cc1ccc(NC2CCCN(C(=O)CCn3nccc3C)C2)cc1C (configuration not stated),"inconclusive: 35.5 µM [inhibitor, single point]",–
CC(=O)Nc1cccc(C(=O)OCC(=O)NC(C)c2ccc(F)cc2)c1 (configuration not stated),"inconclusive: 35.5 µM [inhibitor, single point]",–
Nc1nc2ccc([N+](=O)[O-])c(N)c2s1,"inconclusive: 31.6 µM [inhibitor, single point]",–
C=C[C@H]1CN2CC[C@@H]1C[C@H]2[C@@H](O)c1ccnc2ccc(OC)cc12,–,inactive: -4.04% [at 29.3 µM]
CCc1cccc(CC)c1-n1c(SCn2nnc3ccccc3c2=O)nnc1-c1cccnc1,"inconclusive: 31.6 µM [inhibitor, partial curve]",–
COc1cccc(C(=O)COC(=O)c2cccs2)c1,"inconclusive: 31.6 µM [inhibitor, partial curve]",–
CCN(CC)S(=O)(=O)c1cccc(C(=O)Nc2ccc(Cl)cn2)c1,"inconclusive: 35.5 µM [inhibitor, partial curve]",–
CCCCNS(=O)(=O)c1ccc2nc(SCC(=O)Nc3sccc3C#N)[nH]c2c1,"inconclusive: 14.1 µM [inhibitor, partial curve]",–
CCOc1ccccc1N(C)C(=O)Cn1cnc2onc(-c3ccc(F)cc3)c2c1=O,"inconclusive: 3.55 µM [inhibitor, single point]",–
Cc1ccc(OCCCN2C(=O)C(=O)c3cccc(C)c32)cc1,"inconclusive: 31.6 µM [inhibitor, partial curve]",–
Cc1ccc(N=C(NO)c2nonc2N)c(C)c1,"inconclusive: 39.8 µM [inhibitor, single point]",–
CC(C)C(C)NC(=O)COc1ccc(-c2ccccc2)cc1 (configuration not stated),"inconclusive: 39.8 µM [inhibitor, partial curve]",–
O=C(COC(=O)Cc1cccc(C(F)(F)F)c1)Nc1ccccc1,"inconclusive: 25.1 µM [inhibitor, partial curve]",–
Cc1noc(C)c1COc1ccc(C(=O)OCC(=O)NC2CCCCC2C)cc1 (configuration not stated),"inconclusive: 28.2 µM [inhibitor, partial curve]",–
CCC1C(=O)Nc2nc(-c3ccccc3)c(-c3ccccc3)n2N=C1C (configuration not stated),"inconclusive: 31.6 µM [inhibitor, partial curve]",–

Structure (SMILES),Potency,"activity change, negative = displacement"
Cc1nnc(SCc2ccccc2Cl)c2cc3occc3n12,"inconclusive: 56.2 µM [inhibitor, single point]",–
Cc1ccc(NC(=O)CSc2nc(-c3cccs3)cc(C(F)(F)F)n2)cc1C,"inconclusive: 31.6 µM [inhibitor, single point]",–
CC(=O)N1CCCc2cc(S(=O)(=O)NC(C(=O)NCc3ccc(C)cc3)C(C)C)ccc21 (configuration not stated),–,inactive: -14.6%
CC(=O)c1ccc(OCc2ccccc2)c(C)c1O,"inconclusive: 56.2 µM [inhibitor, single point]",–
Cc1cccc(NC(=O)c2oc3ccc(S(=O)(=O)N4CCOCC4)cc3c2C)c1C,"inconclusive: 31.6 µM [inhibitor, single point]",–
CC1(C)CC(=O)C(CS(=O)(=O)c2ccccc2)=C(O)C1,active: 31.6 µM,–
CC(C)(C)c1ccc(SCCc2ccncc2)cc1,"inconclusive: 35.5 µM [inhibitor, single point]",–
Cc1[nH]c2ccccc2c1/C=N/NS(=O)(=O)c1ccccc1,"inconclusive: 44.7 µM [inhibitor, single point]",–
CCSc1nnc2c(n1)OC(c1ccc(OCC(=O)O)cc1)Nc1ccccc1-2 (configuration not stated),"inconclusive: 50.1 µM [inhibitor, single point]",–
C[N+](C)(C)CCCNC(=O)c1ccc(/C=N/O)nc1,–,inactive: -6.7%
Cc1occc1C(=O)Nc1c(F)c(F)c(F)c(F)c1F,"inconclusive: 35.5 µM [inhibitor, partial curve]",–
Cc1cc(C)nc(Sc2ccc(/C=C(\C#N)C(=O)Nc3ccccc3)o2)n1,"inconclusive: 12.6 µM [inhibitor, partial curve]",–
CN1C(=O)CSC1=NC12CC3CC(CC(C3)C1)C2,"inconclusive: 11.2 µM [inhibitor, partial curve]",–
O=C(NCCc1cccnc1)c1cc(COc2ccc(F)cc2Cl)on1,"inconclusive: 31.6 µM [inhibitor, partial curve]",–
O=c1cc(C23CC4CC(CC(C4)C2)C3)[nH][nH]1,"inconclusive: 7.94 µM [inhibitor, full curve]",–
O=C(CO/N=C/c1ccc(OC(F)F)cc1)NC1CCCCC1,"inconclusive: 28.2 µM [inhibitor, partial curve]",–
O=C(Cc1ccccc1[N+](=O)[O-])NCCSCc1c(F)cccc1Cl,"inconclusive: 25.1 µM [inhibitor, partial curve]",–
COc1cc(/C=C/c2nc3ccccc3c(=O)[nH]2)cc(OC)c1OC,–,inactive: 5.04%
Cc1ccc(CSC2=NCCN2C(=O)c2ccc([N+](=O)[O-])cc2)cc1,"inconclusive: 17.8 µM [inhibitor, partial curve]",–
CCCn1nc(NC(=O)c2cccs2)c2cc3cc(OC)ccc3nc21,–,inactive: 5.32%
O=C(CNC(=O)c1cccs1)N/N=C/c1ccc(O)cc1O,"inconclusive: 25.1 µM [inhibitor, partial curve]",–
